Reference: PubChem BioAssay AID493208 (National Center for Advancing Translational Sciences (NCATS), 2011)
The whole screen tested about 44,000 compounds, of which about 340 (0.77%) were called active. About 5% were inconclusive and are not listed. Calls come from the whole dose curve; as a rule, active = well fitted inhibition curve with a large enough effect; inconclusive = small, poorly fitted or top-dose-only effect; inactive = flat fitted curve, though single readings scatter. Some of the results follow.

assay: Acumen qHTS Assay for Inhibitors of the mTORC1 Signaling Pathway in MEF (Tsc2-/-, p53-/-) Cells: Sytravon; settings: phospho-rpS6 immunofluorescence/PI, 24 h; series mostly up to 38.3 µM; activity change, negative = inhibition: at the top concentration;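 note: plate controls were DMSO for no effect and rapamycin for full effect; nearly all actives have a fitted effect of over 50% in size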
Method in brief: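 Plate MEFs (Tsc2-/-, p53-/-, empty vector) in DMEM/10% FBS; after 24 h add compound, incubate 24 h at 37 degree Celsius; fix in PFA/TX-100, block, stain phospho-rpS6 and 10 uM PI; scan at 488 nm; report % positive cells.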

SMILES	activity change, negative = inhibition
CC1=C(c2ccc(C(C)C)cc2)S(=O)(=O)NC1=NCc1ccc(Cl)cc1	inactive: 6.78%
CCc1ccc2occ(CC(=O)Nc3ccc(C)c(C)c3)c2c1	inactive: -24.6%
CCOC(=O)c1ccccc1NC(=O)c1nn(-c2ccc(OC)c(Cl)c2)c(=O)c2c1c1ccccc1n2C	inactive: -9.58%
Cc1ccc(CNC(=O)CCCc2nnc3n(CC(C)C)c(=O)c4sccc4n23)cc1	inactive: -2.12%
Cc1sc2ncn(CC(=O)N3CCN(c4ccccc4)CC3)c(=O)c2c1S(=O)(=O)N1CCC(C)CC1	inactive: -0.217%
O=c1c2nncn2ccn1-c1ccc(F)c(F)c1	inactive: 15.7%
O=C(c1cc2cc3ccc(Cl)cc3nc2o1)N1CCN(c2cccc(Cl)c2)CC1	inactive: -7.75%
O=C(CN1C(=O)CSc2ccc(S(=O)(=O)N3CCCC3)cc21)NCc1ccc(F)cc1Cl	inactive: -1.03%
CCN(CC)C(=O)C1CCCN(c2ncnc3c2c(-c2ccccc2)cn3-c2cccc(C)c2)C1 (centres undefined)	inactive: 7.12%
CCc1cccc(C)c1NC(=O)Cn1ncc2c3ccccc3n(Cc3ccccc3)c2c1=O	inactive: -3.11%
COc1ccc(-c2cn3nc(SCC(=O)Nc4cc(C)cc(C)c4)ccc3n2)cc1	inactive: -9.12%
CCCSc1ncnc2c1c(-c1ccccc1)cn2-c1ccccc1OC	inactive: 1.8%
COc1ccc(OC)c(NC(=O)CS(=O)(=O)Cc2nc(-c3ccc(C)cc3)oc2C)c1	inactive: -0.114%
CCOc1ccc2c(c1)c(=O)c(S(=O)(=O)c1ccc(CC)cc1)cn2Cc1cccc(Cl)c1	inactive: 3.36%
Cc1ccc(Cl)cc1Nc1nn2c(=O)c3ccc(C(=O)NC4CCCCC4)cc3nc2s1	inactive: 1.68%
COc1ccc(CNC(=O)c2ccc(CS(=O)(=O)c3ccc(Br)cc3)o2)cc1	inactive: -6.38%
CCCCOC(=O)c1ccc(Nc2nc3ccc(C(=O)c4ccccc4)cc3n3cnnc23)cc1	inactive: 1.96%
CCOc1ccc(OCC)c(NC(=O)c2cc(-c3cccs3)nc3ccccc23)c1	inactive: 1.19%
O=c1c2sccc2n(Cc2cc(=O)n3cc(Cl)ccc3n2)c(=O)n1-c1ccccc1	inactive: 4.18%
O=C1CCSc2ccc(S(=O)(=O)Nc3cccc(C(F)(F)F)c3)cc2N1	inactive: 0%
O=c1c(N2CCN(c3cccc(Cl)c3)CC2)csc2ccc(Cl)cc12	inactive: -4.06%
CCOC(=O)c1[nH]c(C)c(CCC(=O)Nc2cc(Cl)c(OC)cc2OC)c1C	inactive: 0%
CCC(C)NC(=O)c1cn(CC)c2ccc(S(=O)(=O)N3CCc4ccccc4C3)cc2c1=O (centres undefined)	inactive: 0.657%
Cc1ccc(CCNC(=O)c2ccc3c(c2)N(Cc2ccc(F)cc2)CCS3)cc1	inactive: 1.86%

SMILES	activity change, negative = inhibition
O=C(NC1CCCCCC1)c1ccc(CS(=O)c2cccc(Cl)c2)o1 (centres undefined)	inactive: -4.22%
O=C(CSc1nc2ccccc2n1Cc1cccc(F)c1)N1CCN(c2ccc(F)cc2)CC1	inactive: 0.942%
Cc1cc(C)c(NC(=O)Cn2c(=O)n(CC(=O)NCCc3ccccc3)c(=O)c3ccccc32)c(C)c1	inactive: 9.97%
Cc1nc(-c2ccc(C)c(S(=O)(=O)N3CCC(C(=O)NCc4ccc(F)cc4)CC3)c2)no1	inactive: -5.98%
Cc1cc(N2CCC(C)CC2)nc2ccc(NC(=O)CCC(=O)N3CCN(c4ccccc4F)CC3)cc12	inactive: -27.8%
O=S(=O)(c1ccc2nc(Nc3ccc(F)cc3)ccc2c1)N1CCCC1	inactive: 0%
Cc1ccc(C)c(CNC(=O)CN2C(=O)CSc3ccc(S(=O)(=O)N(C)C)cc32)c1	inactive: -13.2%
COc1ccccc1N1CCN(S(=O)(=O)CCNC(=O)C(c2ccccc2)c2ccccc2)CC1	inactive: -1.87%
COc1ccc(S(=O)(=O)N(CCc2ccccc2)CC(=O)Nc2cc(C)cc(C)c2)cc1OC	inactive: 1.3%
CCc1ccc(NC(=O)Cn2c(=O)n(CCc3ccccc3)c(=O)c3sc4ccccc4c32)cc1	inactive: 2.52%
CC(=O)c1cccc(N2C(=O)CN(S(C)(=O)=O)CC2(C)C(=O)NC2CCCC2)c1 (centres undefined)	inactive: -15.2%
CCc1ccc(NC(=O)c2sc3nc(C)cc(C)c3c2NC(=O)c2ccccc2OC)cc1	inactive: 1.77%
CCN(Cc1ccccc1)C(=O)CCS(=O)(=O)c1ccc2c(c1)CCN2C(C)=O	inactive: 0.608%
O=C(NC1CCCCC1)c1ccc2c(c1)N(Cc1cccc(Cl)c1)C(=O)c1ccccc1S2=O (centres undefined)	inactive: -0.0683%
CCc1ccc(-c2nc(CSCC(=O)NCc3ccc(C)cc3)c(C)o2)cc1	inactive: 0.545%
COc1ccc(CN2CCN(S(=O)(=O)c3ccc(NC(C)=O)cc3)CC2)c(OC)c1OC	inactive: -2.48%
CC(=O)c1cc2c(cc1N/C(=N/S(=O)(=O)c1ccc(F)cc1)c1ccccc1)OCO2	inactive: 0.138%
O=C(Cn1ncc2c3ccccc3n(Cc3cccc(Cl)c3)c2c1=O)N1CCCCCC1	inactive: 0.154%
O=C(NCc1ccco1)c1ccc2c(c1)N(Cc1cccc(Cl)c1)C(=O)c1ccccc1S2=O (centres undefined)	inactive: -7.19%
CCOc1ccc(CCNC(=O)Cn2c(C)c3cnn(-c4ccccc4)c(=O)c3c2C)cc1	inactive: 0.295%
COc1cc(OC)c(NC(=O)CSc2cc(=O)n(C)c3ccc(Cl)cc23)cc1Cl	inactive: -19.6%
CCc1ccc(NC(=O)CC2C(=O)N(c3ccc(Cl)cc3)C(=O)N2C2CCCC2)cc1 (centres undefined)	inactive: -13.9%
CCc1c(CN2CCN(c3cccc(C)c3)C(C)C2)csc1C (centres undefined)	inactive: -6.51%
Cc1cccc(OCCn2c(-c3ccc(Cl)cc3)nc3ccccc3c2=O)c1C	inactive: 3.64%

SMILES	activity change, negative = inhibition
CC(=O)c1cccc(Nc2nc(-c3ccccc3Cl)nc3ccccc23)c1	inactive: 15.4%
Cc1ccccc1Cn1c2ccccc2c2cnn(CC(=O)NCCc3ccc(Cl)cc3)c(=O)c21	inactive: -5.9%
CC(CCCc1ccccc1)NC(=O)c1nn(-c2ccc(Cl)cc2)nc1CO (centres undefined)	inactive: 5.46%
CC(C)c1cccc(C(C)C)c1NS(=O)(=O)c1cccs1	inactive: -24.4%
Cc1ccc2[nH]c3c(=O)n(CC(=O)N4CCCC(C)C4)ncc3c2c1 (centres undefined)	inactive: 3.52%
O=C(NC1CC(=O)N(c2ccccc2)C1)c1ccc(S(=O)(=O)N2CCCC2)cc1 (centres undefined)	inactive: -2.98%
Nc1ncc(S(=O)(=O)NCc2ccc(F)cc2)cn1	inactive: -8.96%
COc1ccc(CNC(=O)C2CCN(S(=O)(=O)c3ccc4c(ccn4C)c3)CC2)cc1	inactive: -0.745%
CCOC(=O)c1c(C)[nH]c(C)c1S(=O)(=O)NCC(=O)N1CCN(c2ccccc2F)CC1	inactive: -2.98%
COc1ccc(C(=O)CCC(=O)Nc2cc(C)ccc2C)cc1	inactive: -11.2%
Cc1cccc2sc(N(Cc3cccnc3)C(=O)COc3ccccc3)nc12	inactive: -1.17%
CCOc1ccccc1NC(=O)c1cc2c(=O)[nH]c3ccccc3c2s1	inactive: -11.4%
Cc1noc2ncnc(N3CCCC(C(=O)Nc4cccc(C(F)(F)F)c4)C3)c12 (centres undefined)	inactive: 4.76%
CCc1ccc(NC(=O)c2ccc(F)c(S(=O)(=O)N3CCN(c4cc(C)ccc4C)CC3)c2)cc1	inactive: 3.99%
CC(C)c1ccc(NC(=O)Cn2c(=O)oc3cc(S(=O)(=O)N4CCCC4)ccc32)cc1	inactive: 0.428%
CCc1c(C)c(C#N)c2nc3ccccc3n2c1Nc1cccc(C(F)(F)F)c1	inactive: -21.2%
COc1ccc(-c2nc(S(=O)(=O)c3ccc(C)cc3)c(NCc3ccccc3)o2)cc1	inactive: -7.41%
Cn1cc(-c2cc3n(n2)CCC(=O)N3CCCC(=O)Nc2ccccc2F)c2ccccc21	inactive: -4.78%
CCc1cccc(NC(=O)C(CC)n2nc(C)c3sc4ccccc4c3c2=O)c1 (centres undefined)	inactive: 3.21%
Cc1c(C(=O)NCc2ccccc2Br)oc2ccc3c(c12)C(=O)CC(C)(C)O3	inactive: 0.879%
COc1ccc(NC(=O)c2sc3nc4c(cc3c2N)CN(Cc2ccccc2)CC4)cc1OC	inactive: -7.32%
CC(C)c1ccc(NC(=O)C(Cc2ccccc2)NS(=O)(=O)c2ccc3c(c2)oc(=O)n3C)cc1 (centres undefined)	inactive: -27.2%
Cc1noc(-c2ccc(-c3noc(-c4ccc(C(F)(F)F)cc4)n3)cc2)n1	inactive: -12%
O=C(NCCCN1CCN(c2ccc(F)cc2)CC1)c1ccc2nc(CCc3ccccc3)oc2c1	inactive: 1.75%

SMILES	activity change, negative = inhibition
COc1ccc(Nc2nc(-c3ccccc3F)nc3ccccc23)cc1OC	inactive: 4.53%
CCOc1ccc(CC(=O)NCc2ccc3c(c2)CCN3C(C)=O)cc1OCC	inactive: -0.0786%
CN(C)CCNC(=O)Cn1nc(N2CCN(c3ccccc3)CC2)ccc1=O	inactive: 10.2%
COc1ccc(NC(=O)CCc2nnc3n(CC(C)C)c(=O)c4ccccc4n23)cc1OC	inactive: -1.61%
CC(C)(C)OC(=O)N1CCC(c2c(C(=O)N3CCN(c4ncccn4)CC3)cnn2-c2cccc(F)c2)CC1	inactive: 1.12%
Cc1ccc(O)c(NC(=O)COCc2cc(-c3ccco3)on2)c1	inactive: 0.594%
COc1ccc(OC)c(NC(=O)Cn2cc(C(=O)c3ccc(Cl)cc3)c(=O)c3cc(OC)ccc32)c1	inactive: -11.6%
CC(=O)Nc1nonc1-c1nnc(SCc2ccccc2Cl)n1C	inactive: 1.23%
COc1ccc(-c2cc(C(=O)Oc3cccc(C)c3C)c3ccccc3n2)cc1	inactive: 8.3%
COc1ccc(NC(=O)c2ccc3c(c2)CCN3S(=O)(=O)c2ccccc2)cc1	inactive: 0.814%
COc1cc2c(cc1OC)n(CC(=O)c1ccc(C)cc1)c(=O)n1nc(CCn3nc(C)cc3C)nc21	inactive: 0.105%
Fc1ccccc1C1=NC(c2ccc(C(F)(F)F)cc2)=Nc2ccccc2N1	inactive: 5.23%
CCOc1ccccc1CN1CCc2nc(Nc3ccccc3)ncc2C1	inactive: 1.55%
COc1cc(CN2CCN(S(=O)(=O)c3ccc(F)cc3)CC2)cc(OC)c1OC	inactive: 4.13%
O=C(NCc1ccccn1)c1nn(-c2ccccc2F)nc1CO	inactive: -4.01%
COc1ccc(CCN2C(=O)CN(C3CCCCCC3)C(=O)C2c2ccc(C)cc2)cc1OC (centres undefined)	inactive: 9.16%
COC(=O)c1cc(OC)c(OC)cc1NC(=O)c1ccc2c(c1)CCN2S(=O)(=O)c1ccccc1	inactive: -1.1%
Fc1ccc(-n2ncc3c(N4CCN(Cc5ccccc5)CC4)ncnc32)cc1	inactive: 5.9%
CCc1ccc(CNC(=O)c2ccc3c(c2)nc2n3CCCCC2)cc1	inactive: 3.65%
COc1ccc(OC)c(CCNC(=O)CN2C(=O)COc3ccc(S(=O)(=O)N4CCCCCC4)cc32)c1	inactive: 5.32%
COc1cccc(CNC(=O)CSc2n[nH]c(-c3ccccc3Cl)n2)c1	inactive: 2.76%
Cc1ccc(C)c(Cn2cnc3ccccc3c2=O)c1	inactive: -9.14%
